Test results reported in PubChem BioAssay AID1159614 (National Center for Advancing Translational Sciences (NCATS), 2016).
Hit rate of the full screen: of about 45,000 compounds, about 65 (0.1%) were called active. Calls follow the shape of the dose curve; as a rule, active = well fitted activation curve with a large enough effect; inconclusive = small, poorly fitted or top-dose-only effect; inactive = no such curve, though single readings can be large or run the other way. The list shows a part of the results.

target: Galactocerebrosidase (Homo sapiens) (UniProt P54803); assay: A Novel Cell-Based Assay to Identify Small Molecules for B -Galactocerebrosidase; conditions: 145M-Twi-hGALC-G270D cells (Twitcher mouse brain line with human GALC G270D), HMU-beta-Gal fluorescence, 48 h; series mostly up to 57.5 µM; activation: at the top concentration; also: 0% is about no effect; nearly all actives have a fitted effect of over 65% in size
Summary of the method: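 Brain-derived Twitcher mouse 145M-Twi cells stably expressing human GALC-G270D or wild-type GALC, treated live, then residual GALC activity read by fluorescence of HMU-b-Gal substrate (0.1 mM final) in citrate-phosphate buffer pH 5.2 with sodium taurocholate. Signal increase indicates enhancement.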

UniProt P54803, sequence (P54803 whole entry, looked up): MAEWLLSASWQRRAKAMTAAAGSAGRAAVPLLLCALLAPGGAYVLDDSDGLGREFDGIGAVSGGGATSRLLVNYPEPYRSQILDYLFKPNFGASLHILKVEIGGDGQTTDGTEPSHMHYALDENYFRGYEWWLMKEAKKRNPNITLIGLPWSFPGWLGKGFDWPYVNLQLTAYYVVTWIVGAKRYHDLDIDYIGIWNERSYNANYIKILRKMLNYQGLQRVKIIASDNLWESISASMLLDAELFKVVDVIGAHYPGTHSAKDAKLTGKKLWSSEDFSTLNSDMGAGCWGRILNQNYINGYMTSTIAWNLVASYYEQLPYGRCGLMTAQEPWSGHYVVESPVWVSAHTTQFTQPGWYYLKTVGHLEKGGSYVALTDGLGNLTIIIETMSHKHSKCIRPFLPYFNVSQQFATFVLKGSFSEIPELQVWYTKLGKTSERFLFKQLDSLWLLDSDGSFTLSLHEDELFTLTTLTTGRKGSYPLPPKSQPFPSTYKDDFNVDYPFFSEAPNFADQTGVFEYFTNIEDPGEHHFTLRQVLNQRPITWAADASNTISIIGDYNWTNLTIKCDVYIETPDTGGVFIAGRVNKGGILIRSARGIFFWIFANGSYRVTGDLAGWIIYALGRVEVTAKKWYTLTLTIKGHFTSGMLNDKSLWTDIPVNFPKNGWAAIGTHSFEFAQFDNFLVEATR

activation, inactive:
O=C(NCc1ccco1)c1ccc2c(c1)N(Cc1ccccc1)C(=O)c1ccccc1S2 9.89%, CCC1CCCCN1C(=O)c1c[nH]c2ccc(S(=O)(=O)Nc3cccc(OC)c3)cc2c1=O (stereo unspecified) -22.6%, O=C(NC1CCCCC1)c1ccc(CSc2nc3cccnc3n2Cc2cccc(F)c2)cc1 -12.9%, Cc1cc(C)cc(-n2ccn(CC(=O)c3ccc(F)cc3)c(=O)c2=O)c1 -10.8%, Nc1c(C(=O)NCc2cccs2)nnn1CC(=O)Nc1cccc(F)c1 -14.1%, COC(=O)c1scc(-c2ccc(C)cc2)c1S(=O)(=O)N1CCN(c2ccc(F)cc2)CC1 -1.3%, Cc1ccc(N(C)S(=O)(=O)c2ccc3[nH]c(=O)ccc3c2)cc1 -8.82%, O=C(O)c1ccc(NS(=O)(=O)c2ccc(Cl)c(C(=O)Nc3ccccc3)c2)cc1 -11.5%, Cc1ccc(NC(=O)c2sc3ncnc(N(C)C4CCCCC4)c3c2C)c(C)c1 -11%, O=C(c1ccc(CS(=O)(=O)c2ccc(Br)cc2)o1)N1CCN(c2ccc(F)cc2)CC1 -16.9%, CCOc1ccc(NC(=O)CCc2c(C)nc3cc(-c4ccccc4OC)nn3c2C)cc1 -23.8%, COC(=O)c1ccc(CSc2c(C(C)C)cnc3c2c(=O)n(C)c(=O)n3C)cc1 -14.2%, Cc1cccc(C2=Nc3ccccc3N=C(c3cc(Cl)ccc3O)C2)c1 -7.91%, Cc1oc2c(cc(NS(=O)(=O)c3ccc(C(C)C)cc3)c3ccccc32)c1C(=O)OCc1ccccc1 5.56%, N#C/C(=C\c1ccc(OCc2ccc(Cl)cc2Cl)cc1)c1nc2ccccc2[nH]1 14.9%, COc1ccc(NC(=O)c2cnn(-c3ccc(C)c(C)c3)c2C2CCNCC2)cc1OC -8.1%, O=C(Nc1nc2n(n1)C(c1ccc(F)cc1)C=C(c1ccc(Cl)cc1)N2)c1ccc([N+](=O)[O-])cc1 (stereo unspecified) -13.5%, CCOc1ccc(-n2c(C)nc3cc(C(=O)NC4CCCC4)ccc32)cc1 -18.9%, COc1ccccc1CC(=O)Nc1ccc2nc(Nc3cccc(C(F)(F)F)c3)cc(C)c2c1 -13.1%, CCCNC(=O)Cn1nc(-c2ccc(OC)cc2)c2cnc3ccc(F)cc3c21 -4.86%, Cc1cccc(NC(=O)/C(C#N)=C/c2ccco2)c1 -32.4%, COc1ccc(OC)c(CNC(=O)c2cc3c(Cl)nc4ccccc4c3s2)c1 -19.7%, CCOc1ccccc1CNC(=O)c1ccc(CS(=O)Cc2cccc(Cl)c2)o1 (stereo unspecified) -7.46%, COc1cccc(C2CC(=O)Nc3c2ccc(C)c3C)c1OC (stereo unspecified) -5.05%, CCCC(CCC)(C(=O)OCC)C(=O)OCC -13.2%, CCOCCOC(=O)/C=C/c1ccc(OC)cc1 -14.8%, CSc1ccc(C2C(C(=O)Nc3ccccc3)=C(C)Nc3nc4ccccc4n32)cc1 (stereo unspecified) -17.8%, Cc1cccc(NC(=O)CSc2nnc(NC(=O)Nc3ccccc3)s2)c1C -6.59%, CCc1ccc(NC(=O)NCCc2c(C)nn(C)c2C)cc1 -6.99%, COc1ccc(S(=O)(=O)c2c(Nc3ccccc3F)sc(C(=O)c3cccc(OC)c3)c2N)cc1 -27.8%, CCc1ccc(NC(=O)CC2C(=O)NCCN2C(=O)c2ccc(F)cc2)cc1 (stereo unspecified) -5.33%, Cc1ccc(NC(=O)CSc2ncc(-c3ccccc3)[nH]2)cc1 -4.1%, COc1cccc(NC(=O)CSc2nnc(-c3cccc(OC)c3)o2)c1 -24.4%, NC[C@H]1O[C@H](O[C@H]2[C@H](O)[C@@H](O[C@H]3O[C@H](CO)[C@@H](O)[C@H](N)[C@H]3O)[C@H](N)C[C@@H]2N)[C@H](N)[C@@H](O)[C@@H]1O -6.42% [at 23.8 µM], Cc1ccccc1CNC(=O)C(=O)NCC(c1ccco1)S(=O)(=O)c1cccs1 (stereo unspecified) -19.6%, CSc1ccc(CNC(=O)Cn2nc(N3CCN(c4ccccc4)CC3)ccc2=O)cc1 -13.7%, Cc1ccc(OCC(=O)Nc2ccccc2C(=O)OCc2cc(=O)n3ccsc3n2)cc1 -11.5%, O=C(C1CCC(Cn2c(=O)c3sccc3n(Cc3ccccc3)c2=O)CC1)N1CCOCC1 (stereo unspecified) -31.7%, O=C(NC1CC(=O)N(c2cccc(F)c2)C1)c1ccc2c(c1)OCO2 (stereo unspecified) -4.55%, CC(=O)c1ccc(NC(=O)COc2ccccc2-c2nc(-c3ccc(C)cc3)no2)cc1 -16.7%, O=C(Nc1cc2c(cc1C(=O)c1ccccc1Br)OCCO2)c1ccccc1 -10.6%, Cc1ccc(Cl)cc1N1CCN(C(=O)c2cnn(C)c2C2CCN(C(=O)OC(C)(C)C)CC2)CC1 -2.22%, Cc1ccc(-c2nnc(Nc3ccccc3O)c3ccccc23)cc1 -18.1%, Cc1ccc2sc(-c3ccc(N)cc3)nc2c1 -17.4%, O=C(Nc1ccc2nc(SCC(=O)N3CCc4ccccc43)sc2c1)c1ccccc1 -0.549%, CCNC(=O)NCc1cccc(Cl)c1 -18.4%, CCc1ccc(-n2c(=O)c3sc4ccccc4c3n(CC(=O)N(CC)Cc3ccccc3)c2=O)cc1 -7.11%, CCC(=O)N1CCc2cc(CNC(=O)c3ccccc3C)ccc21 -14.3%, CCCCNC(=O)CSc1nc2nc(C)c(Cc3c(F)cccc3Cl)c(C)n2n1 -7.93%, CCOC(=O)c1c(C)[nH]c(C)c1S(=O)(=O)N1CCCC(C(=O)Nc2cc(C)ccc2C)C1 (stereo unspecified) -8.04%, CCc1cc(C(=O)Nc2c(C)nn(Cc3ccccc3Cl)c2C)no1 -22.7%, CC(=O)O[C@]1(C(C)=O)CC[C@H]2[C@@H]3C=C(C)C4=CC(=O)CC[C@]4(C)[C@H]3CC[C@@]21C -9.29%, O=C(CCC(=O)N1CC2CCCN2c2ccccc21)NCc1ccc(F)cc1 (stereo unspecified) -5.86%, Cc1cc(C)c(NC(=O)CN2C(=O)c3cccnc3Sc3ccccc32)c(C)c1 -4.72%, COc1cc(OC)c(NC(=O)N2CCc3c([nH]c4ccccc34)C2c2ccccc2F)cc1Cl (stereo unspecified) -14.1%, O=C(Nc1ccccc1F)c1ccc(Cn2nc(N3CCN(c4ccccc4)CC3)ccc2=O)o1 -14.1%, COc1cc(OC)c(N(C)C(=O)c2c(C)oc3ncnc(N4CCCCC4)c23)cc1Cl -10.9%, CCOc1ccc(CCNC(=O)c2nnc(Cc3ccc(Cl)cc3Cl)o2)cc1OCC -1.91%, COc1ccc(C(=O)NCC(c2ccc3c(c2)OCO3)N2CCN(C)CC2)cc1 (stereo unspecified) -8.87%, O=S(=O)(c1ccc(F)cc1)N(CC(O)Cn1c2ccccc2c2ccccc21)c1ccccc1 (stereo unspecified) -10.7%, COc1ccc(NC(C)=O)cc1NC(=O)C1(c2cccs2)CCOCC1 -19.2%
